Screen size: about 310,000 compounds; about 2,200 (0.71%) showed an effect of 50% or more. Effects have a minus sign here. Some of the results follow.
biological target: human ether-à-go-go-related gene (hERG) potassium channel (human, UniProt Q12809); assay: primary screen, population patch clamp on CHO cells stably expressing hERG
Sequence (Q12809 whole entry, looked up): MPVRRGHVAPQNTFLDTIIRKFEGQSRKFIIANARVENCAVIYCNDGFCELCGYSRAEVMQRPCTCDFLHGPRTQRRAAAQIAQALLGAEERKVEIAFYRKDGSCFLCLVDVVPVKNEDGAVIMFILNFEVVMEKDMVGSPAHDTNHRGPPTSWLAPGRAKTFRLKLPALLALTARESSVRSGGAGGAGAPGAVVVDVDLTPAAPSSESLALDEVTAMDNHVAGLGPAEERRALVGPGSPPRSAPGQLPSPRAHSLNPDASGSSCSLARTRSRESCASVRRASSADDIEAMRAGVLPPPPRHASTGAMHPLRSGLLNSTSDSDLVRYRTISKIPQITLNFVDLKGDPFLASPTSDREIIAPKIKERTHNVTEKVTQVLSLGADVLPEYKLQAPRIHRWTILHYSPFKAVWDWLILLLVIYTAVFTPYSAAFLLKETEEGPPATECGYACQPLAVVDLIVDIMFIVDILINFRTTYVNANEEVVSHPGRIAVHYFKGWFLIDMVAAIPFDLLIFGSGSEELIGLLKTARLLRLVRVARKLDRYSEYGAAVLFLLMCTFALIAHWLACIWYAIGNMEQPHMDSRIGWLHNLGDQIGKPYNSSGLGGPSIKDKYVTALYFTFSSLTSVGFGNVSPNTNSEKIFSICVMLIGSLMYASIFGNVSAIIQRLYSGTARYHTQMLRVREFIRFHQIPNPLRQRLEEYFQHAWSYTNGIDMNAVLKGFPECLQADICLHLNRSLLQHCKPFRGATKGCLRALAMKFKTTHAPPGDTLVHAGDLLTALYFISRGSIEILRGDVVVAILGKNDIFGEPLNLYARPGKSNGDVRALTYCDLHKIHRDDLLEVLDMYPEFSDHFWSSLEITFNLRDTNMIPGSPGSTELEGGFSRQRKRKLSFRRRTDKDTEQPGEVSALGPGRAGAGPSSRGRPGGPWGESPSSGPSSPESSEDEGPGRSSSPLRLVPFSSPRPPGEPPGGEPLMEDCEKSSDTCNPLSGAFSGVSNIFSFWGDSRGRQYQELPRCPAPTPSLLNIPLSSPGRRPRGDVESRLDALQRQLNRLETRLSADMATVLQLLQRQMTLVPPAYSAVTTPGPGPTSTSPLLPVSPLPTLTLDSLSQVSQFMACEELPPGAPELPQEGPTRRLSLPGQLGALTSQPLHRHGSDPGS

| Structure (SMILES) | hERG current change (%, negative = inhibition) at 1uM |
| --- | --- |
| Cc1ccc(C)c(S(=O)(=O)N2CCN(C(=O)c3cc(S(=O)(=O)NCc4ccccc4)ccc3C)CC2)c1 | 8.77% |
| Cc1nc(C(F)(F)F)ccc1C(=O)Nc1ccccc1F | 8.81% |
| Cc1cccc(NS(=O)(=O)c2cccc(C(=O)NCCCN3CCOCC3)c2)c1 | 6.74% |
| Cc1ccc(C(C)C)c(OCC(=O)NNC(=O)C(C(C)C)N2C(=O)c3ccccc3C2=O)c1 (stereo not shown) | 10.6% |
| CC(Nc1nc(N2CCCCC2)nc2ccccc12)c1ccccc1 (stereo not shown) | -14.4% |
| CCO.CCOC(=O)C1=C(C)Nc2sc(C(=O)c3ccc(C)cc3)c(N)c2C1c1ccc(C(=O)OC)cc1 (stereo not shown) | 8.38% |
| COc1cc2c(cc1OC)C(c1cccc(Br)c1)NC(=O)C2 (stereo not shown) | 16.1% |
| COc1ccc(CNc2nc3c(c(=O)[nH]c(=O)n3C)n2CCCc2ccccc2)cc1 | 15.3% |
| O=C(CSc1ccccc1)N1CCN(S(=O)(=O)c2cccs2)CC1 | 3.29% |
| C[C@]12C[C@H](O)[C@@H]3c4ccc(O)cc4CCC3[C@@H]1CCC2=O (stereo partly shown) | 6.91% |
| CC[N+](C)(CC)CCC[n+]1c(-c2ccccc2)c2cc(N)ccc2c2ccc(N)cc21.[I-] | 7.81% |
| CCN(Cc1ccccc1)C(=O)CCS(=O)(=O)c1ccc2c(c1)NC(=O)CO2 | 8.49% |
| CC(=O)Cc1nsc(NC(=O)c2ccc(COc3cccc(C)c3)o2)n1 | 14.8% |
| CC1(C)C2CC[C@]3(C)C(CC=C4[C@@H]5C[C@](C)(CO)CC[C@]5(C(=O)O)CC[C@]43C)[C@@]2(C)CC[C@@H]1O (stereo partly shown) | 16.2% |
| Cc1cccc(S(=O)(=O)Nc2nc3ccccc3nc2Nc2ccc3c(c2)OCO3)c1 | 3.39% |
| Cc1cc(C)nc(Nc2ccccc2Cl)n1.Cl | 10.5% |
| O=C(NCc1ccco1)C1CC(c2ccc(C(F)(F)F)cc2)=NO1 (stereo not shown) | 7.99% |
| CSc1ccccc1NC(=O)COc1ccccc1Cl | 14.6% |
| O=C(CN(C(=O)c1csnn1)c1ccc(Cl)cc1)NCCc1ccccc1 | 13.4% |
| C=CCSc1nnc(-c2cc(Br)ccc2N)c(=O)[nH]1 | 15% |
| Cc1nnnn1/C(=C\c1ccccc1)C(=O)OCC(=O)N1CC2(C)CC1CC(C)(C)C2 (stereo not shown) | 10.6% |
| Cc1nc(Sc2ccccc2)c(C#N)c(C)c1[N+](=O)[O-] | 19.3% |

| Structure (SMILES) | hERG current change (%, negative = inhibition) at 1uM |
| --- | --- |
| O=C(Oc1ccccc1-c1nnco1)c1ccccc1 | 10.7% |
| O=C1CSC(=S)N1/N=C/c1cc(Br)ccc1O | 15.6% |
| O=C(Nc1ccc2oc(=O)ccc2c1)c1ccc(-c2ccccc2[N+](=O)[O-])o1 | 14.4% |
| COc1ccc(OC)c(NC(=O)[C@H]2CC=CC[C@H]2C(=O)O)c1 | 1.97% |
| O=C(COc1coc(CN2CCN(c3ccccc3)CC2)cc1=O)Nc1ccccc1 | 10.3% |
| COc1cc(/C=N/Nc2nc(C)cc(=O)[nH]2)cc(OC)c1O | 12.6% |
| CC(C)NC(=O)CN1CCC(c2nc3ccccc3[nH]2)CC1 | 0.893% |
| CCOC(=O)c1[nH]c(C)c(C(=O)OCCOc2cccc(C)c2)c1C | 12.6% |
| CSc1c(CC(=O)Nc2ccccc2C(F)(F)F)n(Cc2ccccc2)c2ccccc12 | 12.8% |
| COc1ccc(S(=O)(=O)NCC(=O)N(CC(=O)NC(C)(C)C)Cc2cccs2)cc1 | 12.4% |
| CSc1ccc(CN(C)C(=O)C23CC4CC(CC(Cl)(C4)C2)C3)cc1 | 16.7% |
| CC(=O)c1ccc(N2CCN(CC3CCCCC3)CC2)cc1 | 1.38% |
| CC(=O)Nc1ccc(S(=O)(=O)N2CCC(C(=O)NC3CCCC3)CC2)cc1 | 24.6% |
| Cc1cc(C(=O)Nc2sccc2C#N)c2ccccc2n1 | 19.1% |
| O=C(CN1CCCCC1)Nc1cc(Cl)ccc1Cl | -0.089% |
| Cc1ccc(CNC(=O)C2CCC(=O)N(CCc3ccc(Cl)cc3)C2)s1 (stereo not shown) | -22% |
| CCC(C)(C)n1nnnc1C(c1cccs1)N1CCCCC1 (stereo not shown) | -9.19% |
| Cc1ccc2c(CN3CC=C(c4ccccc4)CC3)cc(=O)oc2c1C | 12.3% |
| COc1cc(/C=C(\C#N)C(=O)Nc2ccccc2F)ccc1OCCN1CCOCC1 | -25.6% |
| COc1ccc(N2CCN(C(=O)CCNC(=O)c3ccc(Br)cc3)CC2)cc1 | -5.96% |
| CCNc1ccc(S(=O)(=O)N(C)C)cc1NCC(=O)Nc1ccccc1Br | -1.08% |
| CC(C(=O)N1c2ccc(F)cc2CCC1C)N1C(=O)c2ccccc2C1=O (stereo not shown) | 7.93% |

| Structure (SMILES) | hERG current change (%, negative = inhibition) at 1uM |
| --- | --- |
| Cc1cc(C)c(NC(=O)C(C)c2cccc(C(=O)c3ccccc3)c2)c(C)c1 (stereo not shown) | 10.1% |
| COCc1cc(C)nc(OCC(=O)N/N=C/c2ccco2)c1C#N | 6.5% |
| CC(=O)Nc1ccc(S(=O)(=O)N2CCN(C(=O)c3ncoc3-c3cccc(F)c3)CC2)cc1 | 15.5% |
| O=c1[nH]c(Cc2ccccn2)nc2scc(-c3ccccc3Cl)c12 | 1.45% |
| N#C/C(=C\c1ccc[nH]1)S(=O)(=O)c1ccccc1 | 16.6% |
| OC(CN1CCC(c2c[nH]c3ccccc23)CC1)C(F)(F)F (stereo not shown) | 14.6% |
| CN(C)/C(=N\S(=O)(=O)c1ccccc1)c1ccc([N+](=O)[O-])cc1 | 21.8% |
| O=C(Nc1ccccc1)C1CCCN1S(=O)(=O)c1cccs1 (stereo not shown) | 24.8% |
| Cc1ccc(C(=O)OCn2ncc(Cl)c(Cl)c2=O)cc1 | 1.93% |
| CC(C)Cn1c(-c2ccc(Cl)cc2)cnc1SCC(=O)N1CCOCC1 | 14.1% |
| CCOC(=O)N1CCN(C(=O)c2ccccc2NC(=O)c2ccc(C(C)(C)C)cc2)CC1 | 1.59% |
| Cc1cccc(NC(=S)NC23CN4CN(CN(C4)C2)C3)c1 | 14.5% |
| CCC1Oc2ccccc2N(CC(=O)NCc2ccco2)C1=O (stereo not shown) | 16.8% |
| Cc1onc(-c2c(Cl)cccc2Cl)c1NC(=O)N(C)N | 11% |
| CCn1cc(Br)c(C(=O)NC(C)c2ccccc2)n1 (stereo not shown) | 4.62% |
| COC(=O)N1[C@H](C)C=C[C@]1(Cc1ccccc1)C(=O)NCCCNc1ncc(C(F)(F)F)cc1Cl | 6.81% |
| Cc1ccc(C)c(NC(=O)c2ccc3nccnc3c2)c1 | 9.95% |
| COc1ccc(C2N(c3cc(C)on3)C(=O)C3CCCN32)cc1OC (stereo not shown) | 12.5% |
| Cn1c(=O)c2c(O)c(C=NCc3ccccc3)c(=O)n(C)c2n(C)c1=O | 14.7% |
| CCOc1ccc(CCNC(=O)CSC(=S)N2CCCC2)cc1OCC | 12% |
| CCN(Cc1ccccc1)C(=O)CC(=O)N(CC)Cc1ccccc1 | 13% |
| Cn1cc(CCC(=O)N2CCCC(N3CCN(c4ccccc4F)CC3)C2)cn1 (stereo not shown) | 5.47% |

| Structure (SMILES) | hERG current change (%, negative = inhibition) at 1uM |
| --- | --- |
| Cc1ccc(CNc2oc(-c3cccs3)nc2C#N)cc1 | 5.6% |
| CC1CCc2c(sc(NC(=S)NC(=O)c3ccccc3)c2C#N)C1 (stereo not shown) | 13% |
| CCC(=O)N[C@@H]1CC(C(C)(C)NC(=O)CC)CC=C1C (stereo partly shown) | 12.9% |
| Cc1ccc(Sc2ncccc2C(=O)NC2CCCCCC2)cc1C | 5.75% |
| NC(=O)CN1C(=O)C(=O)N(Cc2cccc(C(F)(F)F)c2)C1=O | 10% |
| O=S(=O)(c1ccc(Br)c2nsnc12)N1CCOCC1 | 8.84% |
| O=c1ccc2cc3ccoc3cc2o1 | 6.94% |
| CN1C(=O)c2cccc3c(N(C)C)ccc(c23)C1=O | 16.8% |
| O=c1c2sc3ccccc3c2[nH]c(=S)n1CCN1CCOCC1 | 10.1% |
| CN(C)/N=C1\C(=O)N(CN2CCN(c3ccccc3)CC2)c2ccccc21 | 14.4% |
| CCn1cc(C(=O)NCCC(C)C)c(=O)c2cc(F)c(N3CCN(C)CC3)cc21 | 6.61% |
| S=C(Nc1ccc(Br)cc1Cl)NN1CCOCC1 | 8.09% |
| O=C(C1CC1)N1CCc2sccc2C1c1ccc(Cl)cc1 (stereo not shown) | 8.67% |
| COc1cccc(NC(=O)c2ccc(-c3ccc([N+](=O)[O-])cc3)o2)c1 | -3.66% |
| CCOC(=O)CC(NC(=O)c1cccs1)c1ccc(OCC)cc1 (stereo not shown) | 5.23% |
| COc1ccc(N2CCN(C(=O)CCC(=O)N3CCOc4ccc(Cl)cc43)CC2)cc1 | 2.63% |
| COC(=O)c1c(NC(=O)COC(=O)C2CCC2)sc(C)c1C | 9.43% |
| Cc1cc2[nH]c(=O)c(=O)[nH]c2cc1S(=O)(=O)Nc1cccc(Cl)c1 | 17.9% |
| Cc1ccc(C)c(S(=O)(=O)N2CCN(C(=O)CCNC(=O)c3ccc(Br)cc3)CC2)c1 | 12.1% |
| Oc1ccc(N2CCN(c3nc(-c4cccs4)nc4ccccc34)CC2)cc1 | 14.9% |
| CN1CCN(NC(=O)Nc2ccc(F)cc2)CC1 | 18.6% |
| Cc1c(CCO)sc[n+]1CC(=O)OC12CC3CC(CC(C3)C1)C2.[Cl-] | 12.4% |

Reference: paper PMC4336329 (PLoS ONE, 2015)
